{"source": "PubChem BioAssay (Tox21)", "note": "Where “and” joins values, the source holds several entries; their conditions need not be identical. Equal values may be shown once. Inconclusive results, whose numbers are uncertain, are shown with a selection of clear calls. Where the call is inconclusive, the potency comes from a doubtful curve fit. A structure can be active in one record and inactive in another. Calls of active or inactive are those of the source. The call rests on the fitted dose curve; in most records, active means well fitted cell-killing curve with a large enough effect in the repeat runs; inconclusive means weak or mixed curves, or effect the other way; inactive means no such curve, though single readings can be large or run the other way. On the % scale 0 is the no-effect control and ±100 the full control effect; potency means the concentration at half of the fitted maximal effect; tags describe the fitted curve by direction and shape.", "data": [{"test": "qHTS assay to identify small molecule antagonists of the peroxisome proliferator-activated receptor gamma (PPARg) signaling pathway - cell viability counter screen (AID 743194); further: nearly all actives have a fitted effect of over 55% in size", "conditions": "PPARg-bla HEK293H viability, CellTiter-Glo luminescence, 17 h; Potency: co-treated with 50 nM rosiglitazone unless noted; activity change, negative = cytotoxicity: at 62.6 µM (top of the series), co-treated with 50 nM rosiglitazone unless noted", "excerpt": "U.S. Tox21 Program National Center for Advancing Translational Sciences [NCATS] NIH Chemical Genomics Center [NCGC] U.S. Environmental Protection Agency [EPA] National Institutes of Environmental Health Sciences [NIEHS] National Toxicology Program [NTP] U.S. Food and Drug Administration [FDA] Tox21 Assay Overview: The peroxisome proliferator-activated receptors (PPARs) are lipid-activated transcription factors of the nuclear receptor superfamily with three distinct subtypes namely PPAR alpha, PPAR delta (also called PPAR beta) and PPAR gamma (PPARg). All these subtypes heterodimerize with Retinoid X receptor (RXR) and these heterodimers regulate transcription of various genes. PPAR-gamma receptor (glitazone receptor) is involved in the regulation of glucose and lipid metabolism. To identify the compounds that activate PPAR-gamma signaling, GeneBLAzer PPAR gamma UAS-bla HEK293H cell line (Invitrogen, Carlsbad, CA, USA) containing a beta-lactamase reporter gene under the control of an Upstream Activator Sequence (UAS) was used to screen the Tox21 compound library. The cytotoxicity of the Tox21 compound library against the PPARg-bla cell line was tested in parallel by measuring the cell viability using CellTiter-Glo assay in the same wells.\nTox21 Assay Protocol Summary: PPARg-bla cells were dispensed at 3000 cells/5uL/well in 1536-well black wall/clear bottom plates using a Multidrop Combi (Thermo Fisher Scientific, Waltham, MA) dispenser. After the assay plates were incubated at 37 C and 5% CO2 for 5 h, 23 nL of compounds dissolved in DMSO, positive controls or DMSO only was transferred to the assay plate by a Pintool station (Kalypsys, San Diego, CA), followed by addition of 1ul Rosiglitazone (50 nM, final concentration in the wells). The assay plates were incubated at 37 C for 17 h, and then 1 uL of LiveBLAzerTM B/G FRET substrate was added using a Bioraptr Flying Reagent Dispenser (FRD) workstation (Beckman Coulter, Indianapolis, IN, USA). The assay plates were incubated at room temperature for 1 h and fluorescence intensity was measured by an Envision plate reader (PerkinElmer, Shelton, CT). For cell viability readout that measures cytotoxicity, 4 ul/well of CellTiter-Glo reagent was added into the assay plates using a Flying Reagent Dispenser. After 30 min incubation at room temperature, the luminescence intensity in the plates was measured using a ViewLux plate reader (PerkinElmer).", "values": [{"smiles": "Cc1cc(C(C)(C)c2cc(C)c(O)c(C)c2)cc(C)c1O", "Potency": "inconclusive: 47.4 µM [cytotoxic, partial curve, poor fit]"}, {"smiles": "CCCCCCCCCCCCn1cc[n+](C)c1", "Potency": "inconclusive: 22 µM [cytotoxic, partial curve, poor fit] [setting not given]"}, {"smiles": "CC(=O)C(Cl)Cl", "Potency": "inconclusive: 0.25 µM [rising, full curve, poor fit]"}, {"smiles": "CN(C)S(=O)(=O)N(SC(F)(Cl)Cl)c1ccccc1", "Potency": "active: 3.89 µM"}, {"smiles": "CC(C)CC(C)(c1ccc(O)cc1)c1ccc(O)cc1", "Potency": "inconclusive: 55.1 µM [cytotoxic] and active: 61.7 µM"}, {"smiles": "C1=Cc2cccc3cccc1c23", "Potency": "inactive"}, {"smiles": "Cc1c(COC(=O)[C@@H]2[C@H](/C=C(\\Cl)C(F)(F)F)C2(C)C)cccc1-c1ccccc1", "Potency": "inconclusive: 42.7 µM [cytotoxic, partial curve, poor fit]"}, {"smiles": "CCCCCCC[CH2][Sn]([Cl])([Cl])[CH2]CCCCCCC", "Potency": "active: 48.9 µM"}, {"smiles": "CC(=O)[O][Sn]([c]1ccccc1)([c]1ccccc1)[c]1ccccc1", "Potency": "active: 0.138 µM"}, {"smiles": "CC1(C)CON(Cc2ccccc2Cl)C1=O", "Potency": "inactive"}, {"smiles": "CC(C)N1C(=O)N(c2ccccc2)CSC1=NC(C)(C)C", "Potency": "inconclusive: 54.9 µM [cytotoxic]"}, {"smiles": "[Cd+2].[Cl-].[Cl-]", "Potency": "inconclusive: 622 nM [cytotoxic, full curve, poor fit] and active: 1.55 µM"}, {"smiles": "CCC(C)(C#N)N=NC(C)(C#N)CC", "note": "(stereo not given)", "Potency": "inactive"}, {"smiles": "O=C(O)c1ccc(=O)[nH]c1", "Potency": "inconclusive: 0.0422 µM [cytotoxic, full curve, poor fit]"}, {"smiles": "CN(C)[C@@H]1C(=O)C(C(N)=O)=C(O)[C@@]2(O)C(=O)C3=C(O)c4c(O)ccc(Cl)c4[C@@](C)(O)[C@H]3C[C@@H]12", "activity change, negative = cytotoxicity": "inconclusive: -35.4% [cytotoxic]"}, {"smiles": "CCCCCCCCCCCCOS(=O)(=O)O", "Potency": "inconclusive: 61.7 µM [cytotoxic, single point] [setting not given]"}, {"smiles": "Oc1ccc(C2(c3ccc(O)cc3)c3ccccc3-c3ccccc32)cc1", "Potency": "active: 17.4 µM"}, {"smiles": "Cc1cc(OC(=O)N(C)C)nn1C(=O)N(C)C", "Potency": "inconclusive: 0.692 µM [rising, full curve, poor fit]"}, {"smiles": "COP(=S)(OC)Oc1ccc([N+](=O)[O-])cc1", "Potency": "inconclusive: 1.55 µM [cytotoxic, full curve, poor fit]"}, {"smiles": "Cc1ccc(N(SC(F)(Cl)Cl)S(=O)(=O)N(C)C)cc1", "Potency": "active: 7.76 µM"}, {"smiles": "C=CCC1=C(C)C(OC(=O)C2C(C=C(C)C)C2(C)C)CC1=O", "note": "(stereo not given)", "Potency": "active: 58.3 µM"}, {"smiles": "O=P(OCC(Br)CBr)(OCC(Br)CBr)OCC(Br)CBr", "note": "(stereo not given)", "Potency": "inconclusive: 62.5 µM [cytotoxic, single point] and inconclusive: 20.8 µM [cytotoxic, partial curve]"}, {"smiles": "CCC(C)(C)c1ccc(O)cc1", "Potency": "inconclusive: 19.7 µM [rising, partial curve, poor fit]"}, {"smiles": "Brc1ccc(Oc2cc(Br)c(Br)cc2Br)c(Br)c1", "Potency": "inconclusive: 62.1 µM [cytotoxic, single point]"}, {"smiles": "OC(c1ccc(Cl)cc1)(c1ccc(Cl)cc1)C(Cl)(Cl)Cl", "Potency": "active: 15.5 µM"}, {"smiles": "CCCCCCCC[N+](C)(CCCCCCCC)CCCCCCCC", "Potency": "active: 7.75 µM and active: 3.47 µM and active: 5.49 µM"}, {"smiles": "O=c1nc(O)n(Cl)c(=O)n1Cl", "Potency": "inconclusive: 0.0154 µM [cytotoxic, full curve, poor fit]"}, {"smiles": "C[C@@H]1O[C@@H](O[C@@H]2C=C3CC[C@@H]4[C@H](CC[C@]5(C)[C@@H](c6ccc(=O)oc6)CC[C@]45O)[C@@]3(C)CC2)[C@H](O)[C@H](O)[C@H]1O", "Potency": "active: 0.0119 µM"}, {"smiles": "CCCOCC(=Nc1ccc(Cl)cc1C(F)(F)F)n1ccnc1", "Potency": "active: 11 µM"}, {"smiles": "Cc1cc(N=Nc2ccccc2C)ccc1N", "Potency": "inconclusive: 4.9 µM [cytotoxic, partial curve, poor fit]"}, {"smiles": "CCc1cccc(CC)c1N(COC)C(=O)CCl", "Potency": "inconclusive: 843 nM [cytotoxic, full curve, poor fit] and inconclusive: 11 nM [cytotoxic, full curve, poor fit]"}, {"smiles": "CCCCOC(=O)c1ccccc1C(=O)OCc1ccccc1", "Potency": "inconclusive: 4.36 µM [cytotoxic, full curve, poor fit]"}, {"smiles": "CNP(=O)(OC)Oc1ccc(C(C)(C)C)cc1Cl", "note": "(stereo not given)", "Potency": "inconclusive: 0.245 µM [rising, partial curve, poor fit]"}, {"smiles": "CSCCCN=C=S", "Potency": "inconclusive: 38.9 µM [cytotoxic, partial curve]"}, {"smiles": "Oc1ccc(Cl)cc1Cc1ccccc1", "Potency": "inconclusive: 1.24 µM [cytotoxic, full curve, poor fit]"}, {"smiles": "C=CC(=O)[O][Sn]([CH2]CCC)([CH2]CCC)[CH2]CCC", "Potency": "active: 0.389 µM"}, {"smiles": "CCOP(=S)(OCC)Oc1cc(C)nc(C(C)C)n1", "Potency": "inconclusive: 27.5 µM [cytotoxic, partial curve, poor fit]"}, {"smiles": "CC(C)C1CCC(Cc2ccc(Cl)cc2)C1(O)Cn1cncn1", "note": "(stereo not given)", "Potency": "inconclusive: 54.4 µM [cytotoxic, single point]"}, {"smiles": "O=S1(=O)OC(c2cc(Br)c(O)c(Br)c2)(c2cc(Br)c(O)c(Br)c2)c2ccccc21", "Potency": "inconclusive: 2 µM [cytotoxic, full curve, poor fit]"}, {"smiles": "O=NN1CCCCC1", "Potency": "inactive"}]}]}
